Common to all, as to experiment: protein-binding microarray (PBM)
Conditions in all cases: PBM: ~300 nM protein, 6 mM HEPES pH 7.8, 80 mM KCl, 0.5 mM EDTA, 0.5 mM EGTA, 6% glycerol, 35 ng/ul poly-dIdC, 1% milk, 1 h, room temperature; Ap Aiptasia and Nv Nematostella (sea anemones) / Co Capsaspora / Aq Amphimedon (sponge) / Dm Drosophila / Hu human; RHD is the Rel homology domain; high values mean tight binding; most listed sequences are background and not binding sites; double strand, one strand shown

The target of assay [1] is T1, GST-Ap-NF-kB RHD (UniProt A0A913YAJ5).
T1 sequence: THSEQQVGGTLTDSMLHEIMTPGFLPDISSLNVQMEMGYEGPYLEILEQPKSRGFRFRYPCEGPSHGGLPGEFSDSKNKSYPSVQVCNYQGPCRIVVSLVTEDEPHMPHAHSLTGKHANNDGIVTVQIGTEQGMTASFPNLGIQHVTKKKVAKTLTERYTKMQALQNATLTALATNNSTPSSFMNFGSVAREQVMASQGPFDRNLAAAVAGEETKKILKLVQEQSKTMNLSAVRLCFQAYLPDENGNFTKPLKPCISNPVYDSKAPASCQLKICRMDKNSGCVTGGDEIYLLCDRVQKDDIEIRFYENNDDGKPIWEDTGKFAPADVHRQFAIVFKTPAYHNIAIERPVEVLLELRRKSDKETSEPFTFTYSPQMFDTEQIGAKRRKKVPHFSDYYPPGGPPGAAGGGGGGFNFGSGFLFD

Assay [2] concerns the target T2, GST-Nv-NF-kB (Cys allele) (UniProt E5G601).
T2 sequence: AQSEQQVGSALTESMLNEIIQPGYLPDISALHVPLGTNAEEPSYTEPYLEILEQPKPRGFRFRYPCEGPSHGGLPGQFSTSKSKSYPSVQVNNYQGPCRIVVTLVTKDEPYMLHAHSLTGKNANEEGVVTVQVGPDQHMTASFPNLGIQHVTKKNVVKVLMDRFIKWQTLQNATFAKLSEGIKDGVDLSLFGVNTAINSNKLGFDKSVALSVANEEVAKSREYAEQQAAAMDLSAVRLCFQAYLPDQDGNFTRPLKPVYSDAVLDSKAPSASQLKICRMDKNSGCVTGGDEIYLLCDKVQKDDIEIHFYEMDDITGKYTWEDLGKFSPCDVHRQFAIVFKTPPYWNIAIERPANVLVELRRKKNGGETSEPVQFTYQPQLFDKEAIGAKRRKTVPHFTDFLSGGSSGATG

Assay [3] deals with T3, GST-Co-NF-kB (UniProt F1ARL5).
T3 sequence: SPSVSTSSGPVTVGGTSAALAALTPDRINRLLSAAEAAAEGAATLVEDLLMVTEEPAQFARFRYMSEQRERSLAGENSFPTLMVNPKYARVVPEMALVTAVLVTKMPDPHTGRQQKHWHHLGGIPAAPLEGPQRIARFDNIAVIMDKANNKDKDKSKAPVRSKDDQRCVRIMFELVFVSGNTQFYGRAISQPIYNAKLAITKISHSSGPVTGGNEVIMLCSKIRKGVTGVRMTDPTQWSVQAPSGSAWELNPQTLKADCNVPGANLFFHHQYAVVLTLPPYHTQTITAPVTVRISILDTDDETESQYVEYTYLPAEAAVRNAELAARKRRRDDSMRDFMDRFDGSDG

Assay [4] has as its target T4, GST-Dm-Relish (UniProt Q94527).
T4 sequence: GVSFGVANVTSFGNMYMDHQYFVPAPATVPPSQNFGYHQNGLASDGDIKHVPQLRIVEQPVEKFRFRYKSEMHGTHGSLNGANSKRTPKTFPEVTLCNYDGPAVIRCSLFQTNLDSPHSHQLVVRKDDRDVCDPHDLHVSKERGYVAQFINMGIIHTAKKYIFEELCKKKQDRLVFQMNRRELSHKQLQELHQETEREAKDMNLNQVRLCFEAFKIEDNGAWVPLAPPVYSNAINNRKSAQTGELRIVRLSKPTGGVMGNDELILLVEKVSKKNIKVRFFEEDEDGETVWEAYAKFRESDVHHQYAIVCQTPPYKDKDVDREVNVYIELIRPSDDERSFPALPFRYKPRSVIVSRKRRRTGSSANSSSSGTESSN

The target in assay [5] is T5, GST-Aq-NF-kB (UniProt A9Y5G7).
T5 sequence: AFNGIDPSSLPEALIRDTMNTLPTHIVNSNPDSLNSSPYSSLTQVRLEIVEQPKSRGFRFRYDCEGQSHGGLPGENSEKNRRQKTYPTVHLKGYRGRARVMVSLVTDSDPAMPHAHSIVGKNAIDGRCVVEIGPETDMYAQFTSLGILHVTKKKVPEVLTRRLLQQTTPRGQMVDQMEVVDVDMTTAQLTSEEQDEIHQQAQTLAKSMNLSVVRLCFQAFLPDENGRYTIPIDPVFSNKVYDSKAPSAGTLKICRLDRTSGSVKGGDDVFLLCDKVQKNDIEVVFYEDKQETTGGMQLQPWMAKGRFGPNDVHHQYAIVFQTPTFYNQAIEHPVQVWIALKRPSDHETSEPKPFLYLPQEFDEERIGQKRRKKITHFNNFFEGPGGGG

This is a selection; strong and weak results do not stand in their true shares. The list includes weakly bound sequences.

As for “CCGATTAACATCAATTTCCATAATGATGTTAATCGGGTCTTGATTCGCTTGACGCTGCTG”, the binding signal in assay [1] was -0.664 z-score; in assay [2], 0.214 z-score; in assay [3] it was 0.0777 z-score; in assay [4] it was 0.637 z-score; in assay [5], -0.13 z-score.
In the case of “CCGATTAACATCAAGTTTCGTCGTGATGTTAATCGGGTCTTGATTCGCTTGACGCTGCTG”, the binding signal in assay [1] is -0.622 z-score; in assay [2] it was 0.205 z-score; in assay [3], 0.219 z-score; in assay [4] it was -0.221 z-score; in assay [5], -0.621 z-score.
Turning to “CCGATTAACATCAGGTCACACTCTGATGTTAATCGGGTCTTGATTCGCTTGACGCTGCTG”, the binding signal was -0.45 z-score in assay [1]; -0.368 z-score in assay [2]; -0.66 z-score in assay [3]; -0.601 z-score in assay [4]; -0.773 z-score in assay [5].
On the same counts, the results for “CCGATTAACATCACGGATTTAATTGATGTTAATCGGGTCTTGATTCGCTTGACGCTGCTG” are -0.628 z-score, -0.136 z-score, 0.118 z-score, 0.247 z-score and -0.163 z-score.
For the sequence “CCGATTAACATCAGCGCCGGGTTTGATGTTAATCGGGTCTTGATTCGCTTGACGCTGCTG”, the binding signal in assay [1] is 0.0568 z-score; in assay [2], -0.147 z-score; in assay [3], 0.176 z-score; in assay [4], -0.145 z-score; in assay [5], 0.277 z-score.
On the same counts, the results for “CCGATTAACATCATCATCTCCATTGATGTTAATCGGGTCTTGATTCGCTTGACGCTGCTG” are -0.0168 z-score, 0.12 z-score, 0.267 z-score, -0.945 z-score and -0.251 z-score.
With “CCGATTAACATCACATTGTTGGATGATGTTAATCGGGTCTTGATTCGCTTGACGCTGCTG”, the binding signal in assay [1] was -0.55 z-score; in assay [2], 0.169 z-score; in assay [3], -0.225 z-score; in assay [4], 0.349 z-score; in assay [5], -0.259 z-score.
The matching figures for “CCGATTAACATCAGTGCATCTCGTGATGTTAATCGGGTCTTGATTCGCTTGACGCTGCTG”: -0.608 z-score, -0.396 z-score, -0.671 z-score, -0.318 z-score and -0.601 z-score.
The matching figures for “CCGATTAACATCAACTGGCCGTCTGATGTTAATCGGGTCTTGATTCGCTTGACGCTGCTG”: 0.0612 z-score, -0.797 z-score, -1.21 z-score, -0.897 z-score and -0.416 z-score.
On the same counts, the results for “CCGATTAACATCAGTCCAAGGCTTGATGTTAATCGGGTCTTGATTCGCTTGACGCTGCTG” are -0.754 z-score, -1.18 z-score, -1.53 z-score, -1.21 z-score and -0.487 z-score.
For the sequence “CCGATTAACATCAGGCATGGTCCTGATGTTAATCGGGTCTTGATTCGCTTGACGCTGCTG”, the binding signal was -0.994 z-score in assay [1]; -1.28 z-score in assay [2]; -1.29 z-score in assay [3]; -1.08 z-score in assay [4]; -0.598 z-score in assay [5].
The matching figures for “CCGATTAACATCAAAATCAGCTTTGATGTTAATCGGGTCTTGATTCGCTTGACGCTGCTG”: -0.876 z-score, -0.134 z-score, 0.182 z-score, -0.537 z-score and -0.522 z-score.
Consider “CCGATTAACATCAGGACACTCCATGATGTTAATCGGGTCTTGATTCGCTTGACGCTGCTG”, for which the binding signal in assay [1] was -0.125 z-score; in assay [2], 0.0867 z-score; in assay [3] it was -0.507 z-score; in assay [4], -0.34 z-score; in assay [5], 0.323 z-score.
On the same counts, the results for “CCGATTAACATCAGAATCTCCTCTGATGTTAATCGGGTCTTGATTCGCTTGACGCTGCTG” are -0.216 z-score, -0.213 z-score, -0.633 z-score, -0.802 z-score and -0.269 z-score.
